# From PubChem BioAssay AID2675 (National Center for Advancing Translational Sciences (NCATS), 2010)
# Out of some 280,000 compounds screened, about 100 (0.036%) were called active. This list was built around the results that the source calls inconclusive (neither active nor inactive); the mix of calls is not that of the screen. Calls follow the shape of the dose curve; as a rule, active = well fitted inhibition curve with a large enough effect in the signal ratio, with a control signal flat (not every such curve was filed as active); inconclusive = small, poorly fitted or top-dose-only effect, or effect the other way, or a change in a side signal; inactive = no such curve, though single readings can be large or run the other way; the % refers to the signal ratio. Potencies beside an inconclusive call are fits to weak or partial responses and may not hold up. “Side channel” marks fits to a control or component signal instead of the main read-out.
# Target: Muscleblind-like protein 1 (Homo sapiens) (UniProt Q9NR56)
# UniProt Q9NR56, sequence (Q9NR56 whole entry, looked up): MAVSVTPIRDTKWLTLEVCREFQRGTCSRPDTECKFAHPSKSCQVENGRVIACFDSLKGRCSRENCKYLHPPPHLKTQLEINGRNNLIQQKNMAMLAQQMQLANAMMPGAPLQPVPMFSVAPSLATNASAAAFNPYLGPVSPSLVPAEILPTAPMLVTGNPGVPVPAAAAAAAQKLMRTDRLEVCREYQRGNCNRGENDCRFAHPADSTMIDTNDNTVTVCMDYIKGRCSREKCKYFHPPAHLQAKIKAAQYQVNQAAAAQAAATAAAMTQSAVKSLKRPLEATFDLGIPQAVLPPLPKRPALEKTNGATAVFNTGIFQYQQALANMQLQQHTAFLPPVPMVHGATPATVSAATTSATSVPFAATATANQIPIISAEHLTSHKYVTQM
# Assay: qHTS Assay for Inhibitors of MBNL1-poly(CUG) RNA binding
# Details: TR-FRET MBNL1-His/biotin-(CUG)12 binding, 665/545 ratio; activity change, negative = inhibition: at 57.5 µM (top of the series)
# Excerpt: NIH Chemical Genomics Center [NCGC] NIH Molecular Libraries Probe Production Centers Network [MLPCN] MLPCN Grant: R03 MH087421-01 Assay Submitter (PI): Charles Thornton NCGC Assay Overview: Expanded CTG repeats in the 3' untranslated region of the DM protein kinase (DMPK) gene causes type I myotonic dystrophy (DM1). DM1 is a multi-systemic disease with a prevalence of 1/7000. Clinical features include myotonia, progressive muscle weakness and wasting, cardiac arrhythmia, insulin resistance, hypersomnolence, cataracts, and other symptoms. The pathogenic effect of expanded CTG repeats stems from deleterious effects of the mutant transcript. CUGexp mRNA accumulates in nuclear foci and sequesters proteins of the muscleblind family, of which MBNL1 is the most common family member in skeletal muscles. The binding interaction between MBNL1 and CUGexp tracts leads to deregulation of alternative splicing and is therefore a key molecular step in the pathogenesis of DM1. To target this binding interaction, we optimized a protein-RNA binding assay in 1536-well format for identification of small molecule inhibitors of biotinylated (CUG)12 and his-tagged MBNL1 binding. Protein-RNA complex of MBNL1-His and Biotin-(CUG)12 captures the detection reagents terbium-labeled anti-His antibody and streptavidin conjugated XL665. This brings the terbium label within close proximity to XL665 to allow time-resolved fluorescence resonance energy transfer (TR-FRET). Inhibitors of MBNL1-(CUG)12 binding will disrupt TR-FRET.
# NCGC Assay Protocol Summary: This is a TR-FRET binding assay with MBNL1-His and Biotin-(CUG)12 RNA. The assay uses a ratiometric measurement. In the presence of MBNL1-(CUG)12 complex, the excitation energy is transferred to the XL665 acceptor label, causing emission at 665nm, while the 545nm donor signal […]. Data were normalized to the controls for basal activity (buffer only) and 100% activity (with MBNL1-(CUG)12). […] The final titration was 92 nM to 58 uM. (3) Add 1 ul of terbium labeled anti-His antibody (0.055 ng/ul final concentration) (4) Add 1 ul of streptavidin-XL665 (5 nM final concentration) (5) Incubate 60 min at room temperature (6) Detect the assay plate in a EnVision plate reader (PerkinElmer) with Ex=340 nm, Em1=665 nm and Em2=545 nm. Keywords: mytonic dystrophy type I, DM1, muscleblind like 1, MBNL1, CUG expansion, protein-RNA binding inhibitor, high throughput screening, MLSMR, MLSCN, NIH Roadmap, qHTS and NCGC
# % is scaled to controls: 0 for no effect and ±100 for the full control effect; potency is read from the fitted curve at half-maximal effect; tags tell the direction and shape of the fitted curve or compound fluorescence and quenching.
SMILES,Potency,"activity change, negative = inhibition"
O=C(/C=C/Nc1ccc(F)cc1F)c1ccco1,"inconclusive: 20 µM [quencher, side channel, partial curve]",–
Cc1cc(N2CCOCC2)nc(-c2ccc([N+](=O)[O-])cc2)n1,"inconclusive: 3.55 µM [quencher, side channel, full curve]",–
CCCNC(=O)OCC12CC3CC(CC(C3)C1)C2,"inconclusive: 25.1 µM [quencher, side channel, single point]",–
COc1ccc(Cc2ccc(OC)c(N)c2)cc1N,–,inactive: -11.5%
O=C(N/N=C/c1ccc(O)c([N+](=O)[O-])c1)C(O)(c1ccccc1)c1ccccc1,"inconclusive: 12.6 µM [quencher, side channel, partial curve]",–
O=C(O)C1CCCN(S(=O)(=O)c2ccc(-c3ccc(=O)[nH]n3)s2)C1 (configuration not stated),"inconclusive: 14.1 µM [quencher, side channel, partial curve]",–
CC(=O)/C(C(=N)N1CCN(C(c2ccccc2)c2ccccc2)CC1)=C(\C)O,–,inactive: -5.74%
Cc1ccc(O)c(N=Cc2cccs2)c1,"inconclusive: 8.91 µM [quencher, side channel, single point]",–
CCC(/C=C1\Sc2ccc(OC)cc2N1CCO)=C\c1sc2ccc(OC)cc2[n+]1CCO,"inconclusive: 1.12 µM [quencher, side channel, full curve, poor fit]",–
C/C(=N\NC(=O)c1ccc(Cl)cc1)c1cccc(NC(=O)C(C)C)c1,–,inactive: -13.7%
COc1ccccc1NC(=O)CN1CCCCC1,–,inactive: 11%
CC(C)(C)NC(=O)c1ccc2c(c1)C(=O)N(C1CCCCC1)C2=O,"inconclusive: 31.6 µM [quencher, side channel, single point]",–
CCOc1ccccc1N=c1oc2cc(O)ccc2cc1C(=O)NCC1CCCO1 (configuration not stated),"inconclusive: 20 µM [quencher, side channel, partial curve]",–
O=C1C2C3C=CC(CNS(=O)(=O)c4ccccc4)(O3)C2C(=O)N1c1ccc(Cl)cc1 (configuration not stated),–,inactive: -4.23%
O=C(N/N=C/c1cccnc1)c1ccc(NC(=O)c2ccccc2Cl)cc1,"inconclusive: 17.8 µM [quencher, side channel, partial curve]",–
O=C(COc1ccccc1[N+](=O)[O-])N/N=C/c1ccncc1,"inconclusive: 35.5 µM [quencher, side channel, single point]",–
Cc1ccsc1-c1nc(CSCC(=O)N2CCN(c3ccccc3)CC2)c(C)o1,–,inactive: 22.8%
N/C(=N\OC(=O)c1ccco1)c1cccc([N+](=O)[O-])c1,"inconclusive: 11.2 µM [quencher, side channel, partial curve]",–
Cn1c(NNC(=O)/C=C/c2ccc3c(c2)OCO3)cc(=O)n(C)c1=O,"inconclusive: 15.8 µM [quencher, side channel, partial curve]",–
CCOC(=O)c1ccc(N2CSC3=C(C#N)C(c4ccc(OC)cc4OC)CC(=O)N3C2)cc1 (configuration not stated),–,inactive: 0.751%
O=C(CSCc1ccccc1)N=Nc1c(O)[nH]c2ccccc12,"inconclusive: 28.2 µM [quencher, side channel, partial curve]",–

SMILES,Potency,"activity change, negative = inhibition"
O=C(CN1C(=O)/C(=C/c2ccccc2)SC1=S)NC1CCS(=O)(=O)C1 (configuration not stated),"inconclusive: 7.94 µM [quencher, side channel, full curve]",–
COc1cc(-c2c(C#N)c(N)nc3c2CCCC3)ccc1O,–,inactive: 1.81%
CC1=Nc2cccc3cccc(c23)N1,"inconclusive: 10 µM [quencher, side channel, partial curve, poor fit]",–
CCc1ccc(C(=O)Cn2cnc3cc([N+](=O)[O-])ccc3c2=O)cc1,"inconclusive: 3.55 µM [quencher, full curve]",–
CNC(=O)/C(C#N)=C/c1c(N2CCN(c3ccc(OC)cc3)CC2)nc2c(C)cccn2c1=O,"inconclusive: 15.8 µM [quencher, side channel, partial curve]",–
O=C(Cn1cnc2c(nnn2-c2ccccc2)c1=O)NCCc1ccccc1,"inconclusive: 7.94 µM [quencher, side channel, single point]",–
O=C(CNS(=O)(=O)c1ccc(Br)cc1)NCc1ccncc1,–,inactive: -9.64%
Cc1ccc(C(=O)N/C(=C\c2ccc([N+](=O)[O-])cc2)C(=O)NCCc2ccccc2)cc1,–,inactive: 7.93%
COc1ccc2nc3oc(C(=O)N4CCN(c5ccccc5F)CC4)cc3cc2c1,"inconclusive: 39.8 µM [quencher, side channel, single point]",–
COc1ccc2c(ccc[n+]2CC(=O)c2ccc(C)cc2)c1,"inconclusive: 12.6 µM [quencher, side channel, partial curve]",–
NNc1nc2ccccc2nc1C(F)(F)F,"inconclusive: 22.4 µM [quencher, side channel, single point]",–
CCN(CC)C(=O)c1cc2c(=O)n3ccccc3nc2s1,"inconclusive: 10 µM [quencher, side channel, partial curve]",–
O=[N+]([O-])c1ccc(S(=O)(=O)NCCc2cn3ccccc3n2)cc1,"inconclusive: 8.91 µM [quencher, partial curve]",–
CC(=O)Nc1ccc(S(=O)(=O)Nc2nc3ccc([N+](=O)[O-])cc3s2)cc1,"inconclusive: 25.1 µM [quencher, side channel, partial curve]",–
NCCCNc1ccc([N+](=O)[O-])cc1C(F)(F)F,"inconclusive: 11.2 µM [quencher, side channel, partial curve]",–
COc1ccccc1NC(=O)CC1S/C(=N/N=C(\C)C2CCCCC2)NC1=O (configuration not stated),–,inactive: 9.22%
Cc1nonc1NC(=O)CSc1nnc(-c2ccoc2C)n1CC(C)C,–,inactive: -0.854%
CCOC(=O)C1=C(C)N=c2s/c(=C\c3ccc(OCC(=O)O)cc3)c(=O)n2C1c1ccccc1 (configuration not stated),"inconclusive: 15.8 µM [quencher, side channel, partial curve]",–
N#CCCSc1ncnc2c1oc1ccccc12,–,inactive: 50.7%
Cc1ccc(S(=O)(=O)Nc2c(C)ccc3nsnc23)cc1,"inconclusive: 15.8 µM [activator, partial curve]",–
O=C(NC(c1ccc(Cl)cc1)c1cc(Cl)c2cccnc2c1O)c1cccnc1 (configuration not stated),"inconclusive: 39.8 µM [fluorescent, side channel, single point]",–

SMILES,Potency,"activity change, negative = inhibition"
CCCCn1c(N)c(Sc2ccc([N+](=O)[O-])cc2)c(=O)[nH]c1=O,"inconclusive: 11.2 µM [quencher, side channel, partial curve]",–
CC1(C)CC(=O)C/C(=N\NC(=O)C2CC23CCC3)C1 (configuration not stated),–,inactive: 4.04%
Cc1cc(N)ccc1-n1c(C)ccc1C,–,inactive: 7.81%
COc1ccc(-c2cc(=O)oc3c(C)c(OCc4nn[nH]n4)ccc23)cc1,"inconclusive: 31.6 µM [quencher, side channel, partial curve]",–
CC(C)C[C@H](NC(=O)OC(C)(C)C)C(=O)N/N=C/c1ccc2nccnc2c1,"inconclusive: 28.2 µM [quencher, side channel, partial curve]",–
O=C(NNC1=NS(=O)(=O)c2ccccc21)c1cccc([N+](=O)[O-])c1,"inconclusive: 15.8 µM [quencher, side channel, partial curve]",–
CCN1CCN(CCOc2cccc(Cl)c2Cl)CC1,–,inactive: -26.4%
Cc1c(N2C(=O)c3ccc(Br)cc3C2=O)c(=O)n(-c2ccccc2)n1C,"inconclusive: 28.2 µM [quencher, side channel, single point]",–
O=[N+]([O-])c1ccc(Oc2ccc(S(=O)(=O)N3CCOCC3)cc2)cc1,"inconclusive: 14.1 µM [quencher, side channel, partial curve]",–
C=C(C)C1CC=C(C)/C(=N/NC(=O)COc2cccc(C)c2)C1 (configuration not stated),"inconclusive: 50.1 µM [inhibitor, partial curve]",–
O=C(O)C1CN(c2nc(Cl)ccc2[N+](=O)[O-])C1,"inconclusive: 12.6 µM [quencher, side channel, partial curve]",–
COc1cccc(C(=O)N/N=C(\C)CC(=O)Nc2ccc(N(C)C)cc2)c1,–,inactive: 1.89%
COc1ccccc1/C=C1\SC(=O)N(CC(=O)N(C)C2CCS(=O)(=O)C2)C1=O (configuration not stated),"inconclusive: 14.1 µM [quencher, side channel, partial curve]",–
COc1ccc(-n2c(SCc3cccnc3)nc3c(c2=O)SCC3)cc1OC,"inconclusive: 15.8 µM [quencher, side channel, partial curve]",–
Cn1cccc1/C=N/NC(=O)Cc1ccccc1,"inconclusive: 31.6 µM [quencher, side channel, single point]",–
CCOc1ccc(-c2ccc(C=O)o2)c([N+](=O)[O-])c1,"inconclusive: 14.1 µM [quencher, side channel, partial curve]",–
COc1cc2c(cc1OC)C(C)N(C(=O)c1cc3c(s1)-c1ccccc1OC3)CC2 (configuration not stated),–,inactive: 82.2%
Cc1cc(=O)oc2cc(Oc3ccc([N+](=O)[O-])cc3[N+](=O)[O-])ccc12,"inconclusive: 2.51 µM [quencher, side channel, full curve]",–
O=C(CSc1nnc2ccc(-c3ccncc3)nn12)N1CCCCC1,"inconclusive: 22.4 µM [quencher, side channel, partial curve]",–
O=C(Nc1ccccc1[N+](=O)[O-])c1cc(S(=O)(=O)Nc2ccccn2)ccc1Cl,"inconclusive: 7.08 µM [quencher, side channel, partial curve]",–
